According to patent publication US11786605B2, “Site specific antibody-drug conjugates with peptide-containing linkers” (Mersana Therapeutics, Inc., priority 2020, dated 2023):

Legend:
NaPi2b-derived peptide = biological target: T1, NaPi2b-derived peptide (Homo sapiens, UniProt O95436); test: Binding kinetics to NaPi2b-derived peptide by Biolayer Interferometry; conditions: BLI, 25° C.
T1 construct: Genscript); purchased Genscript
T1 sequence (O95436 311-340 limits assumed): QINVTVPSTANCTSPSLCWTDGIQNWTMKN
Description: The binding kinetics of XMT-1535, Conjugate 7, and Conjugate 11 to immobilized NaPi2b-derived peptide antigen were determined by Biolayer Interferometry (BLI; Octet; ForteBio). Binding constants for XMT-1535, Conjugate 7, and Conjugate 11 were determined using standard Octet procedures (ForteBio). Biotinylated NaPi2b-derived peptide ([…]-biotin; Genscript) was immobilized to streptavidin octet sensors in kinetics buffer (10×). Sensors were then blocked in kinetics buffer (10×) with biocytin (50 μg/mL). Increasing concentrations of XMT-1535, Conjugate 7, or Conjugate 11 were then associated with immobilized peptide in kinetics buffer (10×).

OVCAR3 = test: Cytotoxicity assay, OVCAR3, CellTiter-Glo; type: cell-based, human; conditions: after six days of treatment
Description: Conjugate 7 and Conjugate 11 were evaluated for their antiproliferation properties in the tumor cell line OVCAR3 in vitro using CellTiter-Glo® (Promega Corp). Cells were plated at a density of 5,000 cells per well in white-walled (volume) 96-well plate and allowed to adhere overnight at 37° C. in a humidified atmosphere of 5% CO2. Cells were incubated with increasing concentrations of the test articles (Conjugate 7 or Conjugate 11, or control Conjugate 10). Three days later, CellTiter-Glo® reagent was added to the wells at room temperature. The luminescent signal was measured after 10 minutes using a SpectraMax M5 plate reader (Molecular Devices). Dose-response curves were generated using Graphpad Prism software. EC50 values were determined from four-parameter curve fitting. Table X summarizes the EC50 values of Conjugate 7, Conjugate 11, and control Conjugate 10 after six days of treatment.

Plasma exposure in mice = conditions: conjugated AF-HPA in plasma; OVCAR3 tumor-bearing mice, single IV dose 0.05 mg/kg by payload
Description: (§1) To determine the concentration of the free AF-HPA drug in a biological sample, an acidified sample was treated with ACN. The free drug was extracted and the ACN supernatant was analyzed. To determine the concentration of conjugated AF-HPA in a non-clinical sample, the sample was subjected to immunocapture using anti-IgG1 antibody-coated magnetic beads followed by exhaustive basic hydrolysis. The ACN supernatant containing the released AF-HPA drug was analyzed by LC-MS/MS. The total antibody concentration in non-clinical samples was measured by LC-MS/MS after immunocapture using an anti-IgG1 antibody via detection of a peptide sequence unique for the antibody after tryptic digestion. For clinical samples, the same procedure could be followed except that an anti-idiotype antibody would be used for immunocapture to avoid the interference of endogenous antibodies.
Female athymic nude mice were inoculated subcutaneously with OVCAR3 cells (n=4 for each group). Conjugate 7, Conjugate 11, or vehicle were dosed intravenously as a single dose on day 1 (mean tumor size of 174-176 mm^3 per group; range of 126-257 mm^3) at 0.05 mg/kg dose by payload. Plasma was collected at 10 minutes, 24 hours, 96 hours, 168 hours, 336 hours, and 504 hours post dosing.

Plasma exposure in rat = conditions: conjugated AF-HPA in plasma; female Sprague-Dawley rats, IV bolus 0.34 mg/kg by payload
Description: as §1
Female Sprague-Dawley rats were inoculated by IV bolus into the tail vein with Conjugate 7 or Conjugate 11, at a dose of 0.34 mg/kg by payload (n=4 for each group). Plasma was collected at 10 minutes, 24 hours, 96 hours, 168 hours, 336 hours, and 504 hours post dosing.

[1] = Plasma exposure in cynomolgus monkey (Example 20); conditions: conjugated AF-HPA in plasma; female cynomolgus monkeys, 1 mg/kg by antibody, IV infusion over 30 minutes
Description: as §1
Female cynomolgus monkeys were injected intravenously with Conjugate 7 or Conjugate 11 at 1 mg/kg by antibody by IV infusion over 30 minutes (n=2 for each group). Plasma was collected at 1 hour, 8 hours, 24 hours, 48 hours, 96 hours, 168 hours, 240 hours, 288 hours, 336 hours, 456 hours, and 504 hours post dosing.

OVCAR3 tumors = test: Tumor growth response in OVCAR3 tumor-bearing mouse model; type: in vivo; conditions: OVCAR3, by Day 33, 0.1 mg/kg by payload
Description: Tumor growth inhibition (% TGI) was defined as the percent difference in median tumor volumes (MTVs) between treated and control groups. Tumor size was measured throughout each efficacy study to determine tumor growth inhibition (TGI).
Tumor size was measured at the times indicated in FIG. 7 using digital calipers. Tumor volume was calculated and was used to determine the delay in tumor growth. Mice were sacrificed when tumors reached a size of ≥1500 mm^3. Tumor volumes are reported as the mean±SEM for each group.
FIG. 7 provides the results for the tumor response in mice inoculated subcutaneously with OVCAR3 cells (n=8 for each group) after IV administration as a single dose on day 1 of Conjugate 7, Conjugate 11, or control Conjugate 10 at 0.025 mg/kg, 0.05 mg/kg or 0.1 mg/kg by payload, or vehicle.

B1: Conjugate 11: stochastic XMT-1535 conjugate made with the maleimido scaffold of Scaffold 6 (conjugate)
heavy: QVQLVQSGAEVVKPGASVKMSCKASGYTFTGYNIHWVKQAPGQGLEWIGAIYPGNGDTSYKQKFRGRATLTADTSTSTVYMELSSLRSEDSAVYYCARGETARATFAYWGQGTLVTVSSGASTKGPSVFPLAPSSKSTSGGTAALGCLVKDYFPEPVTVSWNSGALTSGVHTFPAVLQSSGLYSLSSVVTVPSSSLGTQTYICNVNHKPSNTKVDKRV[left out - human IgG1 Fc]
light: DIQMTQSPSSLSASVGDRVTITCSASQDIGNFLNWYQQKPGKTVKVLIYYTSSLYSGVPSRFSGSGSGTDYTLTISSLQPEDFATYYCQQYSKLPLTFGQGTKLELKRRTVAAPSVFIFPPSDEQLKSGTASVVCLLNNFYPREAKVQWKVDNALQSGNSQESVTEQDSKDSTYSLSSTLTLSKADYEKHKVYACEVTHQGLSSPVTKSFNRGEC
NaPi2b-derived peptide
  koff, Mean Napi2b binding: 1.37e-05 s⁻¹
  kon, Mean Napi2b binding: 165000 M⁻¹ s⁻¹
OVCAR3
  EC50: 0.53 nM
Plasma exposure in mice
  AUCinf: 3680 ng·days/mL
  Clobs: 13.6 mL/day/kg
  Cmax: 1100 ng/mL
  Volss: 0.106 L/kg
  t1/2: 140 h
Plasma exposure in rat
  AUCinf: 15600 ng·days/mL
  Clobs: 21.8 mL/day/kg
  Cmax: 7950 ng/mL
  Volss: 0.125 L/kg
  t1/2: 127 h
[1]
  AUCinf: 2140 ng·days/mL
  Clobs: 16.8 mL/day/kg
  Cmax: 758 ng/mL
  Volss: 0.105 L/kg
  t1/2: 116 h
OVCAR3 tumors
  tumor regression: majority of tumors regressed
